# Measurements: the supplement of paper PMC8728848
# The list shows a part of the results.
# B1: XCL (Xerocomus chrysenteron) (protein)
# chain: MSYSITLRVYQTNRDRGYFSIVEKTVWHFANGGTWSEANGAHTLTQGGSGTSGVLRFLSTKGERITVAVGVHNYKRWCDVVTGLKPDETALVINPQYYNNGGRDYVREKQLAEYSVTSAIGTKVEVVYTVAEGNNLEANVIFS
# Assays:
# Test in all cases: glycan array binding signal (z-score within array); higher = stronger binding
# Conditions in all cases: glycan notation: IUPAC condensed, linker removed
# [1] = molecular target: Neu5Ac(a2-6)Gal(b1-4)GlcNAc(b1-2)Man(a1-6)[Man(a1-3)]Man(b1-4)GlcNAc(b1-4)GlcNAc
# How it was run: (§1)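 Glycan array data came from 3228 arrays in the Consortium for Functional Glycomics database, and only arrays with an available protein sequence were kept. Glycan names were put into IUPAC-condensed notation, and columns mapping to the same glycan were averaged. The binding signal is a within-array Z-score, averaged across arrays of one protein sequence run at different concentrations or buffers and across linkers. A negative Z-score can be read as non-binding.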
# [2] = molecular target: Neu5Ac(a2-6)Gal(b1-4)GlcNAc(b1-3)Gal(b1-3)GlcNAc
# How it was run: as §1
# [3] = molecular target: Neu5Ac(a2-6)Gal(b1-4)GlcNAc(b1-3)Gal(b1-4)GlcNAc
# How it was run: as §1
# [4] = molecular target: Neu5Ac(a2-6)Gal(b1-4)GlcNAc(b1-3)Gal(b1-4)GlcNAc(b1-3)Gal(b1-4)GlcNAc
# How it was run: as §1
# [5] = molecular target: Neu5Ac(a2-6)Gal(b1-4)GlcNAc(b1-3)Gal(b1-4)[Fuc(a1-3)]GlcNAc(b1-3)Gal(b1-4)[Fuc(a1-3)]GlcNAc
# How it was run: as §1
# [6] = molecular target: Neu5Ac(a2-6)Gal(b1-4)GlcNAc(b1-3)GalNAc
# How it was run: as §1
# [7] = molecular target: Neu5Ac(a2-6)Gal(b1-4)GlcNAc6S
# How it was run: as §1
# Neu5Ac(a2-6)GalNAc = molecular target: Neu5Ac(a2-6)GalNAc
# How it was run: as §1
# [8] = molecular target: Neu5Ac(a2-6)GalNAc(b1-4)GlcNAc
# How it was run: as §1
# [9] = molecular target: Neu5Ac(a2-6)GlcNAc(b1-4)GlcNAc
# How it was run: as §1
# [10] = molecular target: Neu5Ac(a2-6)GlcNAc(b1-4)GlcNAc(b1-4)GlcNAc
# How it was run: as §1
# Neu5Ac(a2-8)Neu5Ac = molecular target: Neu5Ac(a2-8)Neu5Ac
# How it was run: as §1
# [11] = molecular target: Neu5Ac(a2-8)Neu5Ac(a2-3)Gal(b1-3)GalNAc(b1-4)[Neu5Ac(a2-8)Neu5Ac(a2-3)]Gal(b1-4)Glc
# How it was run: as §1
# [12] = molecular target: Neu5Ac(a2-8)Neu5Ac(a2-3)Gal(b1-4)Glc
# How it was run: as §1
# [13] = molecular target: Neu5Ac(a2-8)Neu5Ac(a2-3)[Gal(b1-3)GalNAc(b1-4)]Gal(b1-4)Glc
# How it was run: as §1
# [14] = molecular target: Neu5Ac(a2-8)Neu5Ac(a2-3)[GalNAc(b1-4)]Gal(b1-4)Glc
# How it was run: as §1
# [15] = molecular target: Neu5Ac(a2-8)Neu5Ac(a2-8)Neu5Ac
# How it was run: as §1
# [16] = molecular target: Neu5Ac(a2-8)Neu5Ac(a2-8)Neu5Ac(a2-3)Gal(b1-4)Glc
# How it was run: as §1
# [17] = molecular target: Neu5Ac(a2-8)Neu5Ac(a2-8)Neu5Ac(a2-3)[GalNAc(b1-4)]Gal(b1-4)Glc
# How it was run: as §1
# [18] = molecular target: Neu5Ac(a2-8)Neu5Ac(a2-8)Neu5Ac(a2-8)Neu5Ac(a2-3)[GalNAc(b1-4)]Gal(b1-4)Glc
# How it was run: as §1
# [19] = molecular target: Neu5Ac(b2-6)Gal(b1-4)GlcNAc
# How it was run: as §1
# Neu5Ac(b2-6)GalNAc = molecular target: Neu5Ac(b2-6)GalNAc
# How it was run: as §1
# [20] = molecular target: Neu5Ac9Ac(a2-3)Gal(b1-3)GlcNAc
# How it was run: as §1
# [21] = molecular target: Neu5Ac9Ac(a2-3)Gal(b1-4)GlcNAc
# How it was run: as §1
# [22] = molecular target: Neu5Ac9Ac(a2-6)Gal(b1-4)GlcNAc
# How it was run: as §1
# [23] = molecular target: Neu5Gc(a2-3)Gal(b1-3)GlcNAc
# How it was run: as §1
# [24] = molecular target: Neu5Gc(a2-3)Gal(b1-3)[Fuc(a1-4)]GlcNAc
# How it was run: as §1
# Neu5Gc(a2-3)Gal(b1-4)Glc = molecular target: Neu5Gc(a2-3)Gal(b1-4)Glc
# How it was run: as §1
# [25] = molecular target: Neu5Gc(a2-3)Gal(b1-4)GlcNAc
# How it was run: as §1
# [26] = molecular target: Neu5Gc(a2-3)Gal(b1-4)[Fuc(a1-3)]GlcNAc
# How it was run: as §1
# [27] = molecular target: Neu5Gc(a2-6)Gal(b1-4)GlcNAc
# How it was run: as §1
# Neu5Gc(a2-6)GalNAc = molecular target: Neu5Gc(a2-6)GalNAc
# How it was run: as §1
# [28] = molecular target: Neu5Gc(b2-6)Gal(b1-4)GlcNAc
# How it was run: as §1
binder,measurement,setting,value
B1,glycan array binding signal (z-score),[1],-0.278
same,glycan array binding signal (z-score),[2],-0.311
same,glycan array binding signal (z-score),[3],-0.243
same,glycan array binding signal (z-score),[4],-0.311
same,glycan array binding signal (z-score),[5],-0.283
same,glycan array binding signal (z-score),[6],0.128
same,glycan array binding signal (z-score),[7],-0.326
same,glycan array binding signal (z-score),Neu5Ac(a2-6)GalNAc,-0.088
same,glycan array binding signal (z-score),[8],-0.325
same,glycan array binding signal (z-score),[9],-0.322
same,glycan array binding signal (z-score),[10],-0.328
same,glycan array binding signal (z-score),Neu5Ac(a2-8)Neu5Ac,-0.303
same,glycan array binding signal (z-score),[11],-0.322
same,glycan array binding signal (z-score),[12],-0.311
same,glycan array binding signal (z-score),[13],-0.319
same,glycan array binding signal (z-score),[14],-0.316
same,glycan array binding signal (z-score),[15],-0.317
same,glycan array binding signal (z-score),[16],-0.328
same,glycan array binding signal (z-score),[17],-0.314
same,glycan array binding signal (z-score),[18],-0.309
same,glycan array binding signal (z-score),[19],-0.325
same,glycan array binding signal (z-score),Neu5Ac(b2-6)GalNAc,-0.318
same,glycan array binding signal (z-score),[20],-0.323
same,glycan array binding signal (z-score),[21],-0.321
same,glycan array binding signal (z-score),[22],-0.279
same,glycan array binding signal (z-score),[23],-0.309
same,glycan array binding signal (z-score),[24],-0.323
same,glycan array binding signal (z-score),Neu5Gc(a2-3)Gal(b1-4)Glc,-0.307
same,glycan array binding signal (z-score),[25],-0.32
same,glycan array binding signal (z-score),[26],-0.294
same,glycan array binding signal (z-score),[27],-0.314
same,glycan array binding signal (z-score),Neu5Gc(a2-6)GalNAc,0.059
same,glycan array binding signal (z-score),[28],-0.32
